According to the BET-seq Pho4 binding data (Le et al. 2018):
This is one part of the list. The energies were worked out here from pooled read counts, against the library average; single values are noisy.

These sequences were tested against T1, Pho4 (S. cerevisiae) (UniProt P07270) (assay: relative binding free energy (BET-seq); higher = weaker binding). Details: reference: library average.
T1 sequence: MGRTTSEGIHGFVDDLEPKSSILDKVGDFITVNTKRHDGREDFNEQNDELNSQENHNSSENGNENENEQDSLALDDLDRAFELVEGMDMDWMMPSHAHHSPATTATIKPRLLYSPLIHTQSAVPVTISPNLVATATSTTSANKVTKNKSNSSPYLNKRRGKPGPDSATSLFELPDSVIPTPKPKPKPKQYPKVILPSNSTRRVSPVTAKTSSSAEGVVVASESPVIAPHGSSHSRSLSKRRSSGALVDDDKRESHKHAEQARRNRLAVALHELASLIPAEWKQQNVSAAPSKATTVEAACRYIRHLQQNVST
With GTTGTCACGTGAGTTT the “relative binding free energy” value was 0.37 kcal/mol. For AAGTGCACGTGGTCGT, the “relative binding free energy” value was -0.12 kcal/mol. For TGGAGCACGTGGCAAG, the “relative binding free energy” value was -0.15 kcal/mol. With GGGTACACGTGAGTAG the “relative binding free energy” value was 0.25 kcal/mol. In the case of GGAAACACGTGGGATA, the “relative binding free energy” value was 0.01 kcal/mol. In the case of TGTTCCACGTGTATGA, the “relative binding free energy” value was 0.16 kcal/mol. GGGACCACGTGGGCTG was tested, and the “relative binding free energy” value was -0.2 kcal/mol. GTATACACGTGAATTG was tested, and the “relative binding free energy” value was 0.31 kcal/mol. For ATCTGCACGTGTATGG, the “relative binding free energy” value was 0 kcal/mol. With GAATCCACGTGTGTGT the “relative binding free energy” value was 0.23 kcal/mol. TTGTTCACGTGTGTTA was tested, and the “relative binding free energy” value was 0.23 kcal/mol. In the case of AATTGCACGTGTTTGG, the “relative binding free energy” value was 0.08 kcal/mol. For TCTTTCACGTGTTGCG, the “relative binding free energy” value was 0.16 kcal/mol. In the case of TGTCACACGTGTTTCG, the “relative binding free energy” value was 0.16 kcal/mol. For TGTAACACGTGGAGAT, the “relative binding free energy” value was 0.06 kcal/mol. With ATGTTCACGTGGCGTA the “relative binding free energy” value was 0.03 kcal/mol. For TGTGTCACGTGCAGGC, the “relative binding free energy” value was -0.08 kcal/mol. In the case of TTGAACACGTGTATGG, the “relative binding free energy” value was 0.05 kcal/mol. In the case of TTCATCACGTGAATGG, the “relative binding free energy” value was 0.32 kcal/mol. With AGGGACACGTGAGATG the “relative binding free energy” value was 0.26 kcal/mol. GGGAGCACGTGGTGCT was tested, and the “relative binding free energy” value was -0.03 kcal/mol. TTGTTCACGTGGAAAC was tested, and the “relative binding free energy” value was 0.36 kcal/mol. In the case of GTTGCCACGTGATATG, the “relative binding free energy” value was 0.07 kcal/mol. With GGTGTCACGTGCTATG the “relative binding free energy” value was 0.05 kcal/mol. In the case of TAGTCCACGTGGGGGC, the “relative binding free energy” value was -0.09 kcal/mol. ATGGGCACGTGAGACT was tested, and the “relative binding free energy” value was 0.13 kcal/mol. In the case of GACTGCACGTGTGTGT, the “relative binding free energy” value was 0.05 kcal/mol. For TATTTCACGTGTCTAA, the “relative binding free energy” value was 0.31 kcal/mol. In the case of GGCATCACGTGGAGTG, the “relative binding free energy” value was 0.09 kcal/mol. With GCGGACACGTGGTCGG the “relative binding free energy” value was -0.02 kcal/mol. AGTTGCACGTGATCGT was tested, and the “relative binding free energy” value was -0.03 kcal/mol. In the case of GTTCTCACGTGATAAG, the “relative binding free energy” value was 0.47 kcal/mol. For TGTTGCACGTGTATAC, the “relative binding free energy” value was -0.05 kcal/mol. For GGTATCACGTGGGCTC, the “relative binding free energy” value was 0.13 kcal/mol. For AGAGTCACGTGGAGTC, the “relative binding free energy” value was 0.17 kcal/mol. GTGGTCACGTGATCTT was tested, and the “relative binding free energy” value was 0.34 kcal/mol. For GGGTACACGTGTAAAG, the “relative binding free energy” value was 0.09 kcal/mol. In the case of TGATTCACGTGTAGTC, the “relative binding free energy” value was 0.26 kcal/mol. In the case of GTCTGCACGTGGGTCG, the “relative binding free energy” value was -0.12 kcal/mol. For AGGGGCACGTGATGAA, the “relative binding free energy” value was -0.13 kcal/mol. ATGCTCACGTGGGTTT was tested, and the “relative binding free energy” value was 0.05 kcal/mol. TCTTCCACGTGGGTAT was tested, and the “relative binding free energy” value was 0.09 kcal/mol. CGTTTCACGTGTCTGT was tested, and the “relative binding free energy” value was 0.2 kcal/mol. For GTAATCACGTGTGTTA, the “relative binding free energy” value was 0.22 kcal/mol. AGTGACACGTGTGGCG was tested, and the “relative binding free energy” value was 0.1 kcal/mol. GTATCCACGTGTGGTA was tested, and the “relative binding free energy” value was 0.01 kcal/mol. TAGGACACGTGCAGGG was tested, and the “relative binding free energy” value was 0.01 kcal/mol. With GGTGGCACGTGTGTTC the “relative binding free energy” value was 0.07 kcal/mol. AAATGCACGTGGAAGG was tested, and the “relative binding free energy” value was -0.01 kcal/mol. For GGGGACACGTGTAGGA, the “relative binding free energy” value was 0.22 kcal/mol. For AACAGCACGTGAGTGG, the “relative binding free energy” value was 0.19 kcal/mol. For TGGAGCACGTGAAGGA, the “relative binding free energy” value was 0.09 kcal/mol. In the case of AGAGTCACGTGTCGTA, the “relative binding free energy” value was 0.1 kcal/mol. For TGTATCACGTGCAGCG, the “relative binding free energy” value was 0.16 kcal/mol. In the case of TTAATCACGTGATGAT, the “relative binding free energy” value was 0.29 kcal/mol. With TGAGGCACGTGCTGGC the “relative binding free energy” value was -0.17 kcal/mol. AATAGCACGTGGTCGG was tested, and the “relative binding free energy” value was -0.18 kcal/mol. In the case of TCATGCACGTGTAGTG, the “relative binding free energy” value was -0.09 kcal/mol. GGTCTCACGTGATGTT was tested, and the “relative binding free energy” value was 0.3 kcal/mol. For CTATTCACGTGAAGGG, the “relative binding free energy” value was 0.21 kcal/mol. For GTGGTCACGTGTATAT, the “relative binding free energy” value was 0.09 kcal/mol. For AGCTACACGTGTGTGA, the “relative binding free energy” value was 0.2 kcal/mol. ATTTGCACGTGGGTTC was tested, and the “relative binding free energy” value was -0.06 kcal/mol. In the case of AGGTGCACGTGAGGAT, the “relative binding free energy” value was 0.04 kcal/mol. For TAGTGCACGTGCACTG, the “relative binding free energy” value was 0.03 kcal/mol. For GAAAGCACGTGTTGGA, the “relative binding free energy” value was -0.02 kcal/mol. GGTCGCACGTGTTTTT was tested, and the “relative binding free energy” value was -0.02 kcal/mol. In the case of ATCGGCACGTGTGAGT, the “relative binding free energy” value was -0.02 kcal/mol. CAGTGCACGTGGGATT was tested, and the “relative binding free energy” value was -0.21 kcal/mol. ATTATCACGTGGTAAG was tested, and the “relative binding free energy” value was -0.08 kcal/mol. GTGGTCACGTGGGGAA was tested, and the “relative binding free energy” value was 0.03 kcal/mol. For TTGGGCACGTGATTTA, the “relative binding free energy” value was -0.04 kcal/mol. For CGGCACACGTGTAGGT, the “relative binding free energy” value was 0.07 kcal/mol. In the case of AATGGCACGTGTATGT, the “relative binding free energy” value was 0 kcal/mol. For GCCGGCACGTGGGGCT, the “relative binding free energy” value was -0.18 kcal/mol. For ATTTGCACGTGTATTG, the “relative binding free energy” value was 0.06 kcal/mol. With GTTGGCACGTGTAGAA the “relative binding free energy” value was 0.09 kcal/mol. For CTTTGCACGTGGGGTC, the “relative binding free energy” value was -0.32 kcal/mol. For GGAAGCACGTGTTTTG, the “relative binding free energy” value was -0.09 kcal/mol. In the case of AGTTGCACGTGAGTAA, the “relative binding free energy” value was 0.13 kcal/mol. With GGTGGCACGTGGTGGC the “relative binding free energy” value was 0 kcal/mol. In the case of GTTAGCACGTGTGTAA, the “relative binding free energy” value was -0.05 kcal/mol. GTCGTCACGTGATTGA was tested, and the “relative binding free energy” value was 0.18 kcal/mol. In the case of TGAATCACGTGGTACG, the “relative binding free energy” value was 0.13 kcal/mol. AGATACACGTGTGTGA was tested, and the “relative binding free energy” value was -0.01 kcal/mol. GTTTACACGTGGTGAA was tested, and the “relative binding free energy” value was 0.15 kcal/mol. For TCATTCACGTGTGTAG, the “relative binding free energy” value was 0.08 kcal/mol. In the case of TATTACACGTGTATTG, the “relative binding free energy” value was 0.13 kcal/mol. In the case of AGCTGCACGTGCGGGT, the “relative binding free energy” value was -0.17 kcal/mol. GAACGCACGTGTGGGT was tested, and the “relative binding free energy” value was -0.02 kcal/mol. GTAGGCACGTGTCCGG was tested, and the “relative binding free energy” value was -0.11 kcal/mol. ATCTTCACGTGGGTCG was tested, and the “relative binding free energy” value was 0.13 kcal/mol. In the case of TGTTGCACGTGATGGC, the “relative binding free energy” value was 0.2 kcal/mol. In the case of GGCCACACGTGGTGGG, the “relative binding free energy” value was -0.03 kcal/mol. For AGAGACACGTGTAGTG, the “relative binding free energy” value was 0.03 kcal/mol. AGTTTCACGTGTGAGG was tested, and the “relative binding free energy” value was 0.3 kcal/mol. For ACGTGCACGTGAGAGT, the “relative binding free energy” value was -0.01 kcal/mol. With ACGTACACGTGGTGGA the “relative binding free energy” value was 0.07 kcal/mol. In the case of TGTGTCACGTGCACGT, the “relative binding free energy” value was -0.04 kcal/mol. CATTTCACGTGGCAGG was tested, and the “relative binding free energy” value was 0.26 kcal/mol. In the case of GGTTACACGTGTCATG, the “relative binding free energy” value was 0.01 kcal/mol. With CTAGGCACGTGATGGG the “relative binding free energy” value was 0.04 kcal/mol. In the case of TCGTGCACGTGTGTAT, the “relative binding free energy” value was 0.08 kcal/mol. With GATTTCACGTGGTTGG the “relative binding free energy” value was 0.3 kcal/mol. TCTAGCACGTGGGGCA was tested, and the “relative binding free energy” value was -0.15 kcal/mol. GTGGACACGTGATCTG was tested, and the “relative binding free energy” value was 0.13 kcal/mol. For TTATACACGTGGTAAT, the “relative binding free energy” value was -0.01 kcal/mol. With GGTAGCACGTGGTTTG the “relative binding free energy” value was -0.07 kcal/mol. For TTAAGCACGTGACGTT, the “relative binding free energy” value was 0.01 kcal/mol. In the case of CAATGCACGTGTTGTT, the “relative binding free energy” value was 0.04 kcal/mol. For TTTAGCACGTGGGATA, the “relative binding free energy” value was -0.14 kcal/mol. With TATTGCACGTGCGGTC the “relative binding free energy” value was -0.07 kcal/mol. With TTAGACACGTGTATAT the “relative binding free energy” value was 0.05 kcal/mol. In the case of AAGGGCACGTGGTGGG, the “relative binding free energy” value was -0.23 kcal/mol. With AGTGACACGTGGGCTG the “relative binding free energy” value was -0.22 kcal/mol.
